In all, about 410,000 compounds went through this assay and about 530 (0.13%) were called active. The inconclusive results got no clear call from the source; some entries with a clear call stand among them for comparison. Calls follow the shape of the dose curve; as a rule, active = well fitted inhibition curve with a large enough effect; inconclusive = small, poorly fitted or top-dose-only effect, or another doubt; inactive = no such curve, though single readings can be large or run the other way. Potencies of inconclusive entries are doubtful fits and often do not repeat.
Assay: qHTS of GLP-1 Receptor Inverse Agonists: Cytotox Screen
Settings: HEK293 cAMP-luciferase reporter cells, luminescence, 24 h; activity change, negative = inhibition: at 38.3 µM (top of the series) unless noted
Method in brief: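 MLSMR compounds, 24 hr on cells at 37 deg C/5% CO2; luminescence after luciferase reagent (12 min RT). Inhibition counted as the undesired cytotoxic outcome.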
% is scaled to controls: 0 for no effect and ±100 for the full control effect; potency is read from the fitted curve at half-maximal effect.

SMILES	Potency	activity change, negative = inhibition
COc1ccc(OCCNC(=O)c2cccc(Oc3ccc(C(F)(F)F)cc3[N+](=O)[O-])c2)cc1	inconclusive: 12.6 µM [inhibitor, single point]	
COc1ccc(/C(C)=N/Nc2nc3ccccc3nc2C)cc1	inconclusive: 5.62 µM [inhibitor, full curve]	
CC(=O)c1cccc(-c2ccnc3c2CC(C(=O)Nc2ccc(Cl)cc2)O3)c1 (centres undefined)	inconclusive: 11.2 µM [inhibitor, partial curve, poor fit]	
CCOC(=O)c1cc(C#N)c(=S)[nH]c1C		inactive: 1.21%
O=C1/C(=C/c2ccccc2)SC(=S)N1CC(=O)N1CCCCC1c1cccnc1 (centres undefined)	inconclusive: 28.2 µM [inhibitor, single point]	
COc1cc(Cl)c(C)cc1NC(=O)c1ccc(CN2C(=O)CCn3nc(C)cc32)cc1	inconclusive: 0.355 µM [inhibitor, full curve, poor fit]	
CC(=O)N1CCN(S(=O)(=O)c2ccc(Cl)cc2F)CC1	inconclusive: 0.501 µM [inhibitor, partial curve, poor fit]	
CC1CCCCN1CC(O)COCCC12CC3CC(CC(C3)C1)C2 (centres undefined)	inconclusive: 28.2 µM [inhibitor, single point]	
Cc1[nH]c2ccccc2c1C(=O)C(=O)N1CCCc2ccccc21	inconclusive: 28.2 µM [inhibitor, single point]	
c1cc(Nc2cccc3nccnc23)c2nccnc2c1	inconclusive: 7.08 µM [inhibitor, partial curve, poor fit]	
COc1ccc(Cl)cc1N(CC(=O)N(C)C)S(=O)(=O)c1ccc(C)c([N+](=O)[O-])c1	inconclusive: 0.501 µM [inhibitor, full curve, poor fit]	
O=C(Nc1ccc([N+](=O)[O-])cc1)Nc1nc(-c2ccc(Cl)s2)cs1	inconclusive: 5.01 µM [inhibitor, full curve]	
C/C=C/c1ccc(OCCCCN2CC(C)CC(C)C2)c(OC)c1 (centres undefined)	inconclusive: 12.6 µM [inhibitor, single point]	
CC(=N\NC(=O)c1ccccc1)/C(=N/O)C(=O)Nc1ccccc1	inconclusive: 10 µM [inhibitor, partial curve]	
CCc1nnc2c3ccccc3nc(Nc3ccc(F)c(Cl)c3)n12		inactive: 0%
Oc1c(Cl)cc(Cl)c2c1NCCC2	inconclusive: 12.6 µM [inhibitor, single point]	
CCOC(=O)c1nnn2c1nc(N(CC)CC)c1ccccc12	inconclusive: 10 µM [inhibitor, single point]	
COCCNC(=S)N/N=C(\C)c1cccc(C(F)(F)F)c1	inconclusive: 8.91 µM [inhibitor, partial curve, poor fit]	
CCOC(=O)c1ccc(NC(=S)N(CCCN2CCCC(C)C2)Cc2ccco2)cc1 (centres undefined)	inconclusive: 28.2 µM [inhibitor, single point]	
Cc1cc(C)cc(C(=O)Nc2ccc(NC(=O)c3cccs3)cc2)c1	inconclusive: 22.4 µM [inhibitor, single point]	
Cc1cc(C(C)(C)C)ccc1OCCCCN1CCCC1	inconclusive: 28.2 µM [inhibitor, single point]	
Fc1ccccc1NC(=S)NC1CCCC1		inactive: 2.25%

SMILES	Potency	activity change, negative = inhibition
CC1CCN(C(=O)c2ccc(Br)c(S(=O)(=O)N3CCOCC3)c2)CC1	inconclusive: 2.51 µM [inhibitor, full curve]	
CCNC1=C(Cl)C(=O)c2ccccc2C1=O	inconclusive: 28.2 µM [inhibitor, single point]	
CCn1ncc(Br)c1C(=O)Nc1ccc(F)c([N+](=O)[O-])c1	inconclusive: 28.2 µM [inhibitor, single point]	
CCN1C(=O)/C(=C\C=C2/C=CC=CN2CC)SC1=S	inconclusive: 12.6 µM [inhibitor, single point]	
CC(C)NC(=S)N/N=C/c1ccc2c(c1)OCCO2	inconclusive: 22.4 µM [inhibitor, single point]	
COC(=O)c1sc(NC(=O)c2ccc([N+](=O)[O-])o2)c(C#N)c1C	inconclusive: 2.82 µM [inhibitor, full curve, poor fit]	
CCOC(=O)COc1cccc2c(=O)n(CC(=O)NCc3ccccc3)ccc12		inactive: 12%
Cc1[nH]nc2c1C(c1ccsc1C)C(C#N)=C(N)O2 (centres undefined)		inactive: -15.8%
COc1ccc(Cl)cc1NC(=O)C1CCN(S(=O)(=O)c2ccc3c(c2)CCCN3C(=O)C2CCC2)CC1		inactive: 5.21%
Cn1c(/C=N/NC(=O)c2ccccc2Br)nc2ccccc21		inactive: -2.99%
COc1cccc(NC2c3ccccc3C(=O)N2Cc2ccccc2Cl)c1 (centres undefined)		inactive: -3.43%
C#CCOCCOCCOCCNc1nc(N2CCN(C(=O)Cn3cc(CCCN=C(N)N)nn3)CC2)nc(N2CCN(C(=O)[C@H]([C@@H](C)O)n3cc(CCCCN)nn3)CC2)n1		inactive: 5.09%
OCC1(Cc2ccc(Cl)cc2)CCN(CCCc2ccccc2)CC1	inconclusive: 28.2 µM [inhibitor, single point]	
O=C(NCc1ccco1)C1CCCN1C(=O)Nc1ccc(Br)cc1 (centres undefined)		inactive: -6.7%
CC1C(=O)C(C)C(c2cc(Cl)ccc2O)NC1c1cc(Cl)ccc1O (centres undefined)	inconclusive: 28.2 µM [inhibitor, single point]	
CCN(c1ccc(C)cc1)S(=O)(=O)c1nnc(NC(=O)C2CCCCC2)s1		inactive: 0.819%
CN(Cc1ccc(OCC(O)CN(C)Cc2ccccc2)cc1)Cc1nccn1C (centres undefined)	inconclusive: 7.08 µM [inhibitor, partial curve]	
CN1CCN(CCOC2Cc3ccccc3Sc3ccc(Cl)cc32)CC1 (centres undefined)	inconclusive: 11.2 µM [inhibitor, single point]	
O=C(NCc1ccco1)c1ccccc1NS(=O)(=O)c1ccc2c(c1)OCCO2		inactive: -0.519%
Cc1ccc(CCNC(=O)c2cn(C)c3ccc(S(=O)(=O)N(C)C4CCCCC4)cc3c2=O)cc1		inactive: -1.4%
CCC1=Nc2cc(C(=O)NCC(C)c3ccccc3)ccc2Sc2ccc(C)cc21 (centres undefined)	inconclusive: 7.94 µM [inhibitor, partial curve, poor fit]	
Cc1cccc(C(=O)O/N=C(\N)c2ccccn2)c1	inconclusive: 14.1 µM [inhibitor, single point]	
